Results as given in the supplement of paper PMC12217912.
The other results are listed elsewhere or left out. The full chains were built here from the parent and the listed change. Inactive controls read about 0.05.

B1: TEV protease; numbered along this chain (parent)
chain: MGESLFKGPRDYNPISSSICHLTNESDGHTTSLYGIGFGPFIITNKHLFRRNNGTLVVQSLHGVFKVKDTTTLQQHLVDGRDMIIIRMPKDFPPFPQKLKFREPQREERICLVTTNFQTKSMSSMVSDTSCTFPSGDGIFWKHWIQTKDGQCGSPLVSTRDGFIVGIHSASNFTNTNNYFTSVPKNFMELLTNQEAQQWVSGWRLNADSVLWGGHKVFMVKPEEPFQPVKEATQL

Variants of: B1
Experiment: raw area under fraction-flipped curve 0-4 h after induction (AUC4h, not background-subtracted), DNA-recorder readout of cleavage of the substrate (dimensionless); higher = more cleavage of the substrate by the protease variant
Settings: temperature: 34 °C; time window: 0-4 h after rhamnose induction
Protocol: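 In vivo DNA recorder in E. coli TOP10(DE3) ΔrhaA at 34 °C. Each TEVp single-site mutant (parent TEVp 0) is paired with a single-site variant of the 7-mer TEVs (canonical ENLYFQ|S). The substrate sits between flexible linkers in a Bxb1-sfGFP-TEVs-SsrA fusion, so cleavage stabilises Bxb1 and speeds flipping of a recombination array, read by NGS. The value is the raw area under the fraction-flipped curve over 0-4 h after rhamnose induction (AUC4h), with ≥20 reads per time point. It is not background-subtracted; inactive controls average about 0.047.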
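Further: Bxb1 expression induced with 0.2% (w/v) L-rhamnose at OD600 near 0.5, cultures sampled hourly, flipped fraction per protease–substrate barcode pair counted by paired-end Illumina sequencing.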

Variant | area with substrate ENAYFQS | area with substrate ENCYFQS | area with substrate ENDYFQS | area with substrate ENEYFQS | area with substrate ENFYFQS | area with substrate ENHYFQS | area with substrate ENMYFQS | area with substrate ENNYFQS | area with substrate ENPYFQS | area with substrate ENQYFQS | area with substrate ENRYFQS | area with substrate ENSYFQS | area with substrate ENTYFQS | area with substrate ENVYFQS | area with substrate ENKYFQS | area with substrate ENYYFQS | area with substrate ENGYFQS | area with substrate ENIYFQS | area with substrate ENWYFQS
I85N | 0.0505 | 0.0423 | 0.0257 | 0.0332 | 0.0454 | 0.0462 | 0.061 | 0.0496 | 0.0412 | 0.0484 | 0.0482 | 0.0394 | 0.0557 | 0.0336 | – | – | – | – | –
L99T | 0.0552 | 0.0725 | 0.0422 | 0.0655 | 0.0315 | – | – | – | 0.0271 | 0.0442 | – | 0.044 | 0.0575 | – | 0.0612 | 0.0621 | – | – | –
Q97M | 0.076 | 0.0608 | 0.0618 | 0.0843 | – | 0.0525 | 0.077 | 0.0756 | – | 0.0628 | – | 0.0597 | 0.0592 | 0.0559 | – | – | – | – | –
Q75G | 0.0474 | – | – | 0.0598 | 0.0555 | 0.075 | 0.0682 | 0.0521 | 0.0525 | 0.0606 | 0.0541 | 0.0503 | – | 0.0519 | – | – | 0.0658 | 0.0934 | –
Q75S | 0.0656 | 0.0538 | – | 0.0565 | 0.0577 | – | 0.0915 | – | – | 0.0346 | – | 0.0766 | 0.0646 | 0.0636 | 0.0556 | 0.0543 | – | – | –
T70C | 0.0458 | 0.059 | 0.0618 | 0.059 | 0.0434 | – | – | – | – | 0.0624 | 0.0584 | – | – | 0.0647 | 0.0391 | – | 0.0649 | – | –
K98H | 0.0624 | – | 0.0728 | 0.0636 | 0.0603 | 0.0405 | 0.0695 | – | 0.0751 | 0.0633 | 0.0682 | 0.045 | 0.0595 | 0.073 | 0.0554 | 0.0538 | 0.0506 | 0.118 | 0.0608
R87L | 0.0542 | 0.0706 | 0.0608 | 0.0625 | 0.064 | – | – | 0.0612 | 0.0788 | 0.0618 | 0.0716 | 0.0537 | 0.034 | – | – | – | – | 0.103 | 0.0634
M83N | 0.0524 | 0.0501 | – | 0.0694 | 0.0564 | 0.0475 | – | – | – | 0.0498 | 0.0464 | 0.0516 | 0.0577 | 0.0547 | – | 0.0481 | 0.0752 | 0.103 | –
M83H | 0.076 | 0.0504 | 0.0477 | 0.056 | 0.0524 | 0.0586 | – | – | – | 0.067 | 0.0497 | – | 0.0483 | 0.062 | – | 0.0601 | 0.0603 | – | –
Q74N | 0.0608 | – | – | 0.0606 | 0.0568 | – | 0.0958 | – | – | 0.0578 | – | – | – | – | 0.093 | – | – | 0.134 | –
Q74L | 0.0554 | – | – | – | – | 0.061 | – | 0.056 | – | 0.0551 | 0.0484 | – | 0.0698 | 0.0748 | – | – | 0.0629 | – | –
F101G | 0.0543 | 0.0548 | – | 0.051 | 0.0556 | – | – | – | 0.0392 | 0.0499 | – | – | 0.0564 | 0.042 | – | – | 0.0487 | – | –
F101A | 0.0741 | 0.0551 | – | – | – | 0.0517 | – | – | – | 0.0562 | – | – | – | – | – | – | – | – | –
F95E | 0.0406 | 0.0415 | 0.0499 | – | 0.0493 | 0.0433 | 0.0572 | 0.0526 | 0.0403 | 0.0467 | 0.055 | – | 0.0464 | – | – | 0.0635 | 0.0515 | 0.0437 | 0.0203
H62P | 0.0595 | – | 0.0521 | 0.0589 | 0.0463 | – | – | – | – | 0.062 | – | – | – | 0.0596 | 0.0684 | – | 0.0505 | 0.0809 | –
H62T | 0.0556 | 0.0767 | 0.0649 | – | – | 0.0649 | 0.0752 | 0.0617 | 0.0588 | 0.0674 | – | 0.0621 | 0.0606 | 0.0769 | 0.0455 | – | – | – | 0.0376
H62G | 0.0466 | – | 0.0628 | 0.064 | – | – | 0.0312 | 0.0676 | – | 0.0595 | 0.0426 | – | 0.0837 | – | 0.0584 | 0.0509 | 0.0533 | – | –
R102V | 0.0329 | – | 0.0438 | 0.0546 | 0.048 | – | 0.0528 | – | – | 0.0483 | 0.0421 | 0.0498 | 0.0508 | 0.0609 | 0.0625 | 0.0477 | – | 0.0635 | –
R102S | 0.0484 | 0.0524 | 0.0557 | – | 0.0778 | 0.043 | – | 0.0471 | 0.0449 | 0.0573 | 0.0523 | 0.0464 | 0.0475 | 0.0493 | 0.0441 | 0.0325 | 0.0641 | 0.0622 | –
R102L | 0.0382 | 0.0435 | 0.0364 | 0.0403 | 0.0436 | 0.0422 | – | – | 0.0797 | 0.0428 | – | 0.0512 | – | 0.0545 | – | 0.0501 | – | 0.0561 | –
P89G | 0.103 | 0.0719 | 0.0583 | 0.0498 | 0.0536 | – | – | – | – | 0.0718 | – | – | 0.0604 | 0.0735 | – | 0.0639 | 0.0142 | – | –
P89R | 0.055 | – | – | 0.0431 | 0.0609 | 0.0568 | – | 0.056 | – | 0.07 | 0.053 | 0.0811 | 0.0716 | 0.0615 | 0.0436 | 0.0387 | 0.0649 | 0.0859 | 0.0526
P89T | 0.0462 | – | 0.0532 | 0.0656 | – | 0.0588 | – | – | – | – | – | 0.0531 | 0.0798 | 0.0696 | – | – | 0.0585 | 0.0541 | 0.0104
D69V | 0.0516 | 0.0643 | 0.0547 | 0.0595 | 0.0504 | 0.0395 | – | 0.066 | – | 0.0571 | 0.0413 | 0.0476 | – | 0.0686 | – | 0.0461 | – | 0.0798 | –
T71S | 0.0721 | 0.0772 | – | – | – | 0.0711 | – | – | – | 0.0549 | – | 0.0672 | – | 0.068 | – | – | 0.054 | – | –
F92S | 0.0477 | 0.0589 | 0.0548 | 0.0665 | – | – | – | – | 0.0766 | 0.0637 | 0.0502 | 0.0661 | 0.0648 | 0.071 | – | 0.0581 | – | 0.0893 | 0.045
F92Q | 0.0514 | 0.0543 | 0.0562 | 0.0527 | – | 0.0615 | – | 0.0548 | – | 0.0579 | – | 0.048 | 0.0642 | 0.0721 | – | – | 0.0624 | – | 0.0438
F92M | 0.0667 | – | 0.0587 | 0.0761 | 0.0487 | 0.0463 | – | 0.057 | 0.0616 | 0.0588 | 0.0634 | – | – | – | – | – | 0.0439 | – | 0.0558
G63P | 0.0451 | – | 0.0635 | 0.0593 | – | 0.0425 | 0.0672 | 0.0536 | 0.0482 | 0.0451 | 0.0596 | – | 0.0507 | 0.0502 | – | 0.0733 | 0.0194 | – | 0.0532
